# Test results: patent publication US5883097A, “Soluble azole antifungal salt” (Schering Corporation, priority 1998, dated 1999)
# Tested on: Candida, other yeasts, dematophytes, Aspergillus and opportunistic fungi
# Assay: In vitro antifungal activity, broth dilution, various fungi
# Assay type: cell-based
# Conditions: SDB and EMEM, MIC 24, 48, 72 h, MFC 48, 72 h
structure (smiles),measurement,value
"CCC(C(C)O)n1ncn(-c2ccc(N3CCN(c4ccc(OCC5COC(Cn6cncn6)(c6ccc(F)cc6F)C5)cc4)CC3)cc2)c1=O [compound of formula II, -(2 R-cis)-4-[4-[4-[4-[[-5-(2,4-Difluorophenyl)-tetrahydro-5-(1 H-1,2,4-triazol-1-ylmethyl)furan-3-yl]methoxy]phenyl]-1-piperazinyl]phenyl]-2-4-dihydro-2-[(1 S)-ethyl-2(S)-hydroxypropyl]-3 H-1,2,4-triazol-3-one]",in vitro antifungal activity,broad spectrum antifungal activity
